# Out of some 310,000 compounds screened, about 14,000 (4.5%) showed an effect of 50% or more. Effects have a minus sign here. This is one part of the list.
# Target: human ether-à-go-go-related gene (hERG) potassium channel (human, UniProt Q12809)
# Assay: primary screen, population patch clamp on CHO cells stably expressing hERG
# 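Further: peak tail current of the secondary pulse compared with the same well before compound.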
# Chain of human ether-à-go-go-related gene (hERG) potassium channel (Q12809 whole entry, looked up): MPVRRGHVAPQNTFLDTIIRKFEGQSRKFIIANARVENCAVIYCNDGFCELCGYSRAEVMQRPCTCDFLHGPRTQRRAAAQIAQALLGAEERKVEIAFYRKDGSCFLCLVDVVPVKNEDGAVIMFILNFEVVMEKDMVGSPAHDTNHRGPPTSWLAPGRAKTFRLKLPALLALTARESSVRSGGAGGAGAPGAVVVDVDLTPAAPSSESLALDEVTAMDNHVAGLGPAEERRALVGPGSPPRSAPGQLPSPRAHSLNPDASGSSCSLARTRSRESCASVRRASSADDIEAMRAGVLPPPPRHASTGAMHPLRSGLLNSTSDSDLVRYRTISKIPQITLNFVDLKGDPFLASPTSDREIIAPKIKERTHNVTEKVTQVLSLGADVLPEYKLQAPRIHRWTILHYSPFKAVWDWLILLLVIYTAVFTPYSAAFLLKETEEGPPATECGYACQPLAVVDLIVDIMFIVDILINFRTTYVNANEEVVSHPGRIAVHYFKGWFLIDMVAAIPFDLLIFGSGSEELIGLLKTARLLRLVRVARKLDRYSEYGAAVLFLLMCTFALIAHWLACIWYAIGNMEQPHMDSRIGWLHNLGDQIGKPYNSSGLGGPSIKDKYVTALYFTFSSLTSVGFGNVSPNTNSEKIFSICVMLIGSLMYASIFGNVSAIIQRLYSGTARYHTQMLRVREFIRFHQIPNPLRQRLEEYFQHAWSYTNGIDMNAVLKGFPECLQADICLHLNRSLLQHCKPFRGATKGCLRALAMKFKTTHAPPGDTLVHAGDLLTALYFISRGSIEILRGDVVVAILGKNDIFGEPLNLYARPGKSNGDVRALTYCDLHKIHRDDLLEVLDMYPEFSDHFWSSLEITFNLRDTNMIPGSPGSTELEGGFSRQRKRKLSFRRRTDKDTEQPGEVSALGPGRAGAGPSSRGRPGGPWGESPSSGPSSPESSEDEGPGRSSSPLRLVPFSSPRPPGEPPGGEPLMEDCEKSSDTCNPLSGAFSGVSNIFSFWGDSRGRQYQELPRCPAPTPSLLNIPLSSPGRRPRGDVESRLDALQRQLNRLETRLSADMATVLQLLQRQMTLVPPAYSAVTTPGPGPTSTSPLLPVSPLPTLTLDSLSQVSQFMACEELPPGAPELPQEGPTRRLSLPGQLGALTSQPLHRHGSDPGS
row,Compound,"hERG current change (%, negative = inhibition) at 10uM"
1,CCOC(=O)CNC(=S)N(CCCN1CCCC1)Cc1cccs1,-53.6%
2,CCn1c(=O)cc(OCC(=O)NC2CC2)c2ccccc21,12%
3,O=C(N1CCOCC1)N1CCN(S(=O)(=O)N2CCCCC2)CC1,-2.05%
4,COc1cccc(C(=O)C2CCCN(Cc3cccc4c3OCO4)C2)c1 (stereo not shown),-49.4%
5,CC(C)c1ccc(OCC(=O)NNC(=S)NC(=O)c2ccco2)c(Br)c1,3.09%
6,Cc1cccn2c(=O)nc(SCC(=O)N3CCCCCC3)nc12,-19.9%
7,O=C(O)Cc1ccc(NS(=O)(=O)c2ccc3ccccc3c2)cc1,-48.2%
8,CCN(C(=O)COC(=O)c1cc(-c2ccccc2)nc2c1c(C)nn2-c1ccccc1)C1CCS(=O)(=O)C1 (stereo not shown),21.5%
9,Cc1ccnc(SCc2cc(=O)c(OC(=O)c3ccco3)co2)n1,4.97%
10,COCCCN1CC(=O)N2C(c3ccccc3)c3[nH]c4ccccc4c3C[C@H]2C1=O (stereo partly shown),-11.3%
11,Clc1ccc(OCc2nc(-c3ccccn3)no2)c(Br)c1,0.556%
12,CC(C)Sc1nc2c(cnn2-c2ccc(F)cc2)c(=O)[nH]1,0.854%
13,Cc1ccccc1NC(=O)c1cnc2ccccn2c1=O,-9.67%
14,O=S(=O)(Nc1ccc(C(F)(F)F)cn1)c1ccccc1,11.3%
15,Cc1c(C(=O)N2CCOCC2)oc2ccc(Br)cc12,-23.7%
16,CC1(C)Cc2c(C#N)c(N)n(-c3ccccc3)c(=S)c2CO1,2.55%
17,COc1ccc(CN2CC(C(=O)NCCc3ccc(C)cc3)CC2=O)cc1 (stereo not shown),-11.9%
18,CCOC(=O)Nc1cccc(OCC(=O)Nc2ccccc2OC)c1,-1.38%
19,Cc1ccc(NC(=O)CCNC(=O)Cn2ccc3ccccc3c2=O)cc1F,24%
20,Cc1cccc(C(=O)N2CCN(c3ncnc4c3cnn4-c3ccccc3)CC2)c1,-19.4%
21,COc1ccc(OCC(=O)NC(=S)Nc2ccc(S(=O)(=O)Nc3cc(C)on3)cc2)cc1,8.54%
22,CCCCOc1cccc(/C=C(\C#N)C(=O)NC2CC2)c1,-0.258%
23,O=C(OCCOCn1cc(Br)c(=O)[nH]c1=O)c1ccccc1,1.66%
24,O=c1[nH]c(O)c(C=Nc2ccccc2Sc2ccccc2)c(=O)[nH]1,9.37%
25,Fc1ccccc1NC(=S)N1CCN(C/C=C/c2ccccc2)CC1,-23.4%

# — publication PMC4336329 (PLoS ONE, 2015)
